The record followed here is paper PMC6919601, “Identification of Plasmodium dipeptidyl aminopeptidase allosteric inhibitors by high throughput screening” (PLoS ONE, 2019).

The campaign covered roughly 110,000 compounds. About 230 (0.21%) showed an effect of 50% or more. The list shows a part of the results.
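Also: 30 min substrate incubation versus DMSO and 10 µM JCP410 controls.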

Sequence of DPAP1 (Q8IIJ9 whole entry, looked up): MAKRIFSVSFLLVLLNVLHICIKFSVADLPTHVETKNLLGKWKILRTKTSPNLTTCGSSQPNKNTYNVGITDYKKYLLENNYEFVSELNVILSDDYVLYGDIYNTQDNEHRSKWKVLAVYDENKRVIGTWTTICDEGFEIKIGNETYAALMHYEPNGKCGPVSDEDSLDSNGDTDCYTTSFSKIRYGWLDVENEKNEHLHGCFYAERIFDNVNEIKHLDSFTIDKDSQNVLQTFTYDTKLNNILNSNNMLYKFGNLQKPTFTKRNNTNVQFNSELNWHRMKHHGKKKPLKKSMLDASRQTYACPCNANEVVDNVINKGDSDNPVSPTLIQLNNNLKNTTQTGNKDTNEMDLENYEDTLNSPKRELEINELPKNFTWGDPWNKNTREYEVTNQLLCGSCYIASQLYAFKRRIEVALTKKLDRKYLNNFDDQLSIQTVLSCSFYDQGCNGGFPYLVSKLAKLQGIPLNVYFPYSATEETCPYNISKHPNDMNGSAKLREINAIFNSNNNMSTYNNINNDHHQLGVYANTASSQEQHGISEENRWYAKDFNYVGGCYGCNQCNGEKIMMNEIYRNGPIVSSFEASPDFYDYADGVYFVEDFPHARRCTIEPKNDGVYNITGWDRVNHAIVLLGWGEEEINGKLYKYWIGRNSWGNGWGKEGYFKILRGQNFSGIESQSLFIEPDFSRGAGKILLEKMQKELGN

The assay has as its target DPAP1 (Plasmodium falciparum, UniProt Q8IIJ9). In words: primary screen, percent inhibition; read by cleavage of a fluorogenic dipeptide substrate; higher = more effect of the substance. The arrangement: species or system P. falciparum D10 trophozoite lysates; single well.
Consider `Cc1nn(Cc2cccc3ccccc23)c(C)c1N`, for which the “% Inhibition @ 10 uM” value is on record as -0.222%.
`Cc1ccc(C)c(S(=O)(=O)c2nnn3c2nc(O)c2sccc23)c1`: the “% Inhibition @ 10 uM” value is -3.13%.
The figure for `Cc1c(C(=O)C(F)(F)F)c2ccccc2n1CC(=O)NC1CCCCCC1` is -1.92%.
The result for `CNS(=O)(=O)c1cn(CC(=O)NCc2ccccn2)cc1S(=O)(=O)NC` reads -7.87%; that for `O=C(O)CCCNC(=O)c1ccccc1C(=O)O`, -5.51%; that for `CCc1c(C)sc(NC(=O)c2ccco2)c1C(N)=O`, 14.9%.
The figure for `O=C(c1ccccc1Cl)N1CCCCCC1` is -3.79%; for `Cc1cccc(NC(=O)c2ccc(S(=O)(=O)N3CCCCC3C)cc2)c1` (stereo not shown) it is 3.81%.
In the case of `CC(C)Oc1ccc(C(CC(=O)O)n2cnnn2)cc1` (stereo not shown), the “% Inhibition @ 10 uM” value is on record as -7.96%.
The figure for `CCCCNC(=O)c1ccc(SC)cc1OC` is -2.88%.
Consider `N#CC(C#N)=Cc1cc(-c2ccccc2)nn1-c1ccccc1`, for which the “% Inhibition @ 10 uM” value is recorded as 21.2%.
The figure for `C=CCOc1ccc(/C=C2\C(=O)N(CCC3=CCCCC3)C(C)=C2C(=O)OC)cc1OC` is 1.91%; for `CCc1noc2c1/C(=N\O)CC(c1ccccc1)C2` (stereo not shown) it is -2.55%.
`Clc1ccccc1OCCCCN1CCOCC1`: the “% Inhibition @ 10 uM” value is reported as -0.351%.
As to `COc1cc(C2Nc3ccc4ncccc4c3C3=C2C(=O)CCC3)cc(OC)c1O` (stereo not shown), the “% Inhibition @ 10 uM” value was -2.54%.
On to `CCN(CC)C(=O)COc1ccc(Cl)cc1Cl`, for which the “% Inhibition @ 10 uM” value is -5.46%.
Consider `COc1ccc(C2(C)CC(C)(C)Nc3ccccc32)cc1` (stereo not shown), for which the “% Inhibition @ 10 uM” value is on record as -6.18%.
Turning to `CCOc1ccc(NC(=O)C23CC4CC(CC(C4)C2)C3)cc1`, the “% Inhibition @ 10 uM” value worked out at 5.63%.
The figure for `CC(=O)c1cn(C)c(=O)c2ccccc12` is 1.54%.
The result for `Cc1ccc(C(=O)N/C(=C\c2cc(-c3ccccc3)nn2-c2ccccc2)C(=O)NCc2ccccc2)cc1` reads -8.12%; that for `CNC(=O)C1=C(C)NC(=O)NC1c1ccc(Cl)cc1` (stereo not shown), 2.09%; that for `COc1cc(/C=C2\SC(NC(C)=O)=NC2=O)ccc1OCc1ccccc1C`, 1.37%.
As to `CC1(C)CC(=O)c2c(nc(SCC(N)=O)c(C#N)c2-c2ccccc2)C1`, the “% Inhibition @ 10 uM” value is 2.44%.
`COc1cc(/C=C(/C#N)C(=O)NC2CCCCC2)ccc1O`: the “% Inhibition @ 10 uM” value was found to be 2.94%.
The figure for `ClC(CSc1nnnn1-c1ccccc1)c1ccccc1` (stereo not shown) is -2.62%; for `CCS(=O)(=O)N1CCCC(C(=O)NCCc2ccccc2)C1` (stereo not shown) it is -7.35%.
The figure for `O=C(NCC1CCCO1)C(Cc1ccccc1)NS(=O)(=O)c1cccc2nsnc12` (stereo not shown) is 0.317%; for `COc1ccc(-c2c(C)[n+]([O-])c3c([n+]2[O-])CCCC3)cc1` it is -5.28%; for `Cc1c(C(=O)NC(C)CCc2ccccc2)sc2nc3n(c(=O)c12)CCCCC3` (stereo not shown) it is -6.34%.
The result for `Cc1cccc(-c2noc(CNC(=O)COc3ccc(Br)c(C)c3)n2)c1` reads -1.22%; that for `COc1c([N+](=O)[O-])cc2c(C)c(C(=O)N3CCN(C)CC3)oc2c1OC`, -1.22%; that for `O=C(c1ccc(Br)cc1)n1c(=O)oc2ccccc21`, -1.06%.
Take `Cc1cc(C(=O)O)c2cccc(C)c2n1`: the “% Inhibition @ 10 uM” value came out at 3.68%.
The figure for `Brc1cccc(CNCc2cccnc2)c1` is 2.46%; for `O=c1oc2ccc3ccccc3c2cc1-c1nc(-c2ccc(Br)cc2)cs1` it is -4.31%.
The figure for `COc1ccc(/C=N/n2c(C)nnc2-n2nc(C)cc2C)c(OC)c1` is -2.65%.
The figure for `COc1ccc(Cl)cc1S(=O)(=O)N1CCN(C)CC1` is -1.32%.
On to `COc1ccc(CN2CCN(CCCc3ccccc3)CC2)c(OC)c1`, for which the “% Inhibition @ 10 uM” value was -8.57%.
Consider `Cc1c(CNC2CCCC(C)C2C)c(C(=O)O)c(C)n1Cc1ccccc1` (stereo not shown), for which the “% Inhibition @ 10 uM” value is listed as -1.92%.
Regarding `N#CC1=C(N)Oc2cc(N)ccc2C1c1ccc(-c2ccccc2)cc1` (stereo not shown), the “% Inhibition @ 10 uM” value is listed as -1.38%.
The result for `CC(C)C[C@H](NC(=O)c1cccc(-c2cncnc2)c1)C(=O)NCC#N` reads -0.207%; that for `COc1ccc(-n2c(C)c3c(C)nnc(C)c3c2C)c(OC)c1`, 3.47%; that for `COc1ccc(CNC(=O)c2cnn3c2NC(c2ccccc2)CC3C(F)(F)F)cc1` (stereo not shown), 2.79%.
`COc1ccccc1C(=O)NC1CCCCCCC1`: the “% Inhibition @ 10 uM” value is listed as -0.349%.
The result for `CCn1c(C(=O)O)c(CNCc2ccc(C)o2)c2ccc(C)cc21` reads -5.37%; that for `CS(=O)(=O)N(Cc1ccccc1Cl)c1ccc(C(=O)N2CCCCC2)cc1`, 0.755%.
For the compound `CC(C)(C)SC[C@H](NC(=O)c1ccccc1)C(=O)NCC#N`, the “% Inhibition @ 10 uM” value is on record as 1.35%.
The figure for `O=C1c2ccccc2NC(c2ccc(Br)cc2)N1c1ccc(Cl)c(Cl)c1` (stereo not shown) is -5.2%; for `Cc1cccc(-c2cc(C(=O)O)c3c(-c4ccccc4)[nH]nc3n2)c1` it is 4.85%.
The figure for `CCc1ccc(OCC(=O)Nc2cccc(C(C)=O)c2)c(Br)c1` is -1.92%; for `CCCS(=O)(=O)N1CCC(C(=O)N2CCC(Cc3ccccc3)CC2)CC1` it is -0.0542%.
The result for `CCOc1ccccc1C(=O)Nc1sc2c(c1C(N)=O)CCC(C)C2` (stereo not shown) reads 1.15%; that for `Cn1cnnc1SCC(=O)n1c2ccccc2c2ccccc21`, 1.91%; that for `Cc1cccc(NC(=O)C2CCCN(S(=O)(=O)c3c[nH]cn3)C2)n1` (stereo not shown), -3.7%.
Turning to `Cc1ccc(Cc2nn3c(=O)/c(=C/C=C/c4ccccc4)sc3nc2=O)cc1`, the “% Inhibition @ 10 uM” value is on record as 1.23%.
In the case of `CC(C)CC(NC(=O)OCc1ccccc1)C(=O)OC1C(C2COC(C)(C)O2)OC2OC(C)(C)OC21` (stereo not shown), the “% Inhibition @ 10 uM” value is given as -5.38%.
The result for `Cc1ccc(CNC(=O)CCn2nc(-c3ccccc3)ccc2=O)cc1` reads 4.81%; that for `CCN1C=CC(=Cc2sc3ccccc3[n+]2CCCS(=O)(=O)O)C=C1`, -8.7%; that for `CC(C(=O)Nc1ccc(F)cc1)N1C(=O)c2ccccc2C1=O` (stereo not shown), 7.76%.
For the compound `CCOC(=O)N1CCN(c2nc(-c3cccs3)cc(C(F)(F)F)n2)CC1`, the “% Inhibition @ 10 uM” value is on record as -1.31%.
Take `CCCCN(CC)CCNC(=O)c1cc2c(O)nc3ccccc3c2s1`: the “% Inhibition @ 10 uM” value is recorded as -0.499%.
The figure for `COCC(=O)n1ncc(-c2ccc(OCc3ccc(Cl)cc3)cc2)c1N` is -5.81%; for `Cc1ccc(C(=O)N/C(=C\c2ccc3c(c2)OCO3)C(=O)NC(Cc2ccccc2)C(=O)O)cc1` (stereo not shown) it is 3.54%; for `Cc1cc(C)c2nc(-c3cccs3)cc(C(=O)O)c2c1` it is 3.69%.
The figure for `CCCCN(Cc1ccccc1)C1CCN(CC)CC1` is -0.0953%; for `O=C1C2CCCCC2C(=O)N1c1cccc(Cl)c1Cl` (stereo not shown) it is -19.9%.
The result for `Cc1[nH]c2ccccc2c1SCCNC(=O)COc1ccc(Cl)cc1Cl` reads -0.228%; that for `O=C(CN1Cc2ccccc2C1=O)NCCc1c[nH]c2ccccc12`, 2.84%; that for `Cc1ccc(S(=O)(=O)N2CCC(=O)c3cc(C)ccc32)cc1`, 0.323%.
With `CC1CCCC(N2CCC(O)(c3ccc(Br)cc3)CC2)C1` (stereo not shown), the “% Inhibition @ 10 uM” value is on record as -5.44%.
The figure for `CCn1nc(C(=O)Nc2cccc(C(F)(F)F)c2)c(Cl)c1Cl` is -7.16%; for `CCOC(=O)c1cnc(SCc2nc(-c3ccc(OC)cc3)oc2C)nc1N` it is 3.99%; for `CCN(CC)c1nc(Nc2ccc(Cl)cc2)nc(N(CC)CC)n1` it is -5.32%.
The figure for `CN(CCc1ccccn1)C(=O)c1cc2c(s1)-c1ccccc1OC2` is 11.8%.
The figure for `CC1=C(C(=O)OC2CCCC2)C(c2ccsc2)C2=C(O)CC(c3cccs3)CC2=N1` (stereo not shown) is 0.146%; for `Cc1ccccc1C1=N/C(=C\c2cc(Br)cs2)C(=O)O1` it is 2.7%.
Regarding `CCCNC(=O)c1cnn2c(C)c(Cc3cccc(C)c3)c(C)nc12`, the “% Inhibition @ 10 uM” value came to 2.9%.
The result for `COc1cc2c(cc1OC)C1(CCOCC1)CN(CCC(c1ccccc1)c1ccccc1O)C2` (stereo not shown) reads 5.48%.
The result for `COc1ccc(-n2cccc2C=C2C(=O)NC(=O)NC2=O)cc1Cl` reads -1.54%.
The figure for `Cc1ccccc1C(=O)Nc1ccc(S(=O)(=O)N2CCc3ccccc32)cc1` is 0.583%; for `O=C1NC(=O)/C(=C\c2ccc(-c3ccc(F)c(Cl)c3)o2)S1` it is 4.86%; for `Cc1nnc2c(N3CCN(C)CC3)nc3ccccc3n12` it is -1.6%.
For the compound `CC(=O)C1=C(C)OC(N)=C(C#N)C1c1cccnc1` (stereo not shown), the “% Inhibition @ 10 uM” value was 2.85%.
Regarding `Cc1ccc(NC(=O)c2c(N)sc3c2CCC3)cc1`, the “% Inhibition @ 10 uM” value is 3.27%.
The figure for `Cc1cc(NC(=O)c2c(C)oc3ncn(C)c(=O)c23)no1` is 2.27%; for `O=C(CCc1cn(Cc2ccccc2Cl)c2ccccc12)NCc1ccccn1` it is 0.0244%.
For the compound `Cc1cccc2c1NC(=O)/C2=C1\SC(Nc2ccc(Cl)cc2)=NC1=O`, the “% Inhibition @ 10 uM” value was -6.64%.
The figure for `CCOC(=O)c1c(C)nc2c(C#N)cnn2c1C` is -4.03%.
The result for `COc1ccc(/C=C2\C(=O)/C(=C/c3ccc(OC)cc3)C3CCC2N3C)cc1` reads -2.95%.
The figure for `Cc1ccccc1CNC(=O)c1ccc2nc(N3CCCCC3)sc2c1` is 0.0882%; for `COCc1cc(C)nc(SCC(=O)Nc2ccccc2)c1C#N` it is -1.06%.
For `O=C(Nc1sc2c(c1CN1CCN(C(=O)c3ccco3)CC1)CCC2)c1ccc(F)cc1`, the “% Inhibition @ 10 uM” value is given as 4.03%.
For `O=C(O)c1ccc(-n2nnnc2SCC(=O)N2CCOCC2)cc1`, the “% Inhibition @ 10 uM” value was found to be 3.25%.
Take `CCOC(=O)/C(C#N)=C/c1cccc2ccccc12`: the “% Inhibition @ 10 uM” value is listed as -1.7%.
`CC1=NN(c2cc(Cl)ccc2Cl)C(=O)C1`: the “% Inhibition @ 10 uM” value is -2.25%.
On to `CC(=O)c1ccc(-n2c(C)ccc2C)cc1`, for which the “% Inhibition @ 10 uM” value came out at 3.86%.
The figure for `Cc1ccc(C)c(-c2csc(N3N=C(c4ccccc4)CC3c3ccccc3)n2)c1` (stereo not shown) is 2.76%; for `COc1ccc(C(=O)NCC2CCCO2)cc1Br` (stereo not shown) it is -8.95%; for `Cc1ccc2c(c1)-c1c(cnn1CC(=O)NCCN(C)Cc1ccccc1)CO2` it is -0.583%.
Regarding `COc1ccc(Cl)cc1C(=O)Nc1ccc(Br)c(C)n1`, the “% Inhibition @ 10 uM” value was 70.4%.
For the compound `Cc1cc2nc(O)c(O)nc2cc1S(=O)(=O)NCc1ccc2c(c1)OCO2`, the “% Inhibition @ 10 uM” value is listed as 0.275%.
Consider `Cc1ccc(C(=O)Nc2ncccc2Cl)o1`, for which the “% Inhibition @ 10 uM” value is on record as 3.76%.
For the compound `O=[N+]([O-])c1ccccc1S(=O)(=O)N1CCN(c2ccccc2)CC1`, the “% Inhibition @ 10 uM” value is 2.46%.
